Each structure is given as a SMILES string. In all, about 150,000 compounds went through this assay and about 540 (0.36%) showed an effect of 50% or more. Some of the results follow.

The test system of the experiment is Plasmodium falciparum. In words: Primary screen in NF54 nanoGlo assay, in single point, at 2uM, 72h; a lower Z score goes with more inhibition. The experiment is classed as functional, Erythrocyte. The settings on record: timepoint 72 hour.
As for `C=CCN1C[C@H](C)N(C(=O)CN2C(=O)CN(C)C2=O)C[C@@H]1C`, the “% Inhibition” value was determined as 3% and the Z score was -0.68.
On the same counts, the results for `CN1C[C@@H](Cn2cnc(-c3ccccc3)c2CCc2ccccc2)CC1=O` are -13% and 1.65.
Taken in the same sequence, the figures for `CC(C)(C)CC(=O)NCC(=O)N1CCCCCCC1` were -3% and 0.47.
Consider `OCCN(CCO)c1ccc(C(c2ccc(Cl)cc2)c2ccc(N(CCO)CCO)cc2Cl)c(Cl)c1`, for which the “% Inhibition” value is listed as 1% and the Z score is given as -0.23.
Take `Cc1ccc(CNC(=O)N2CCCC3(CCOCC3)C2)cc1`: the “% Inhibition” value is -8% and the Z score is listed as 1.07.
Taken in the same sequence, the figures for `Cc1cccc(-c2nsc3c(=O)n(CC(=O)Nc4ccc(C)c(Cl)c4)cnc23)c1` were -5% and 0.8.
Take `CCc1nnc(NC(=O)[C@H]2CCCN(c3ncnc4onc(C)c34)C2)s1`: the “% Inhibition” value is on record as -3% and the Z score was found to be 0.35.
Turning to `CCc1nc2c(c3n[nH]c(=O)n13)CCC2`, the “% Inhibition” value is -5% and the Z score is listed as 0.57.
For `CNC(=O)c1noc(CN2CC[C@@H]3OCc4cccc(c4)Oc4cc(ccc4C)C(=O)N(C)CC(=O)N[C@@H]3C2)n1`, the “% Inhibition” value is given as -6% and the Z score is reported as 0.8.
For the molecule `O=C(NC1CC1)c1cc(=O)c(OCc2ccccc2Cl)c[nH]1`, the “% Inhibition” value is -8% and the Z score worked out at 0.98.
Regarding `CC(=O)c1c(C)[nH]c(C(=O)N(C)Cc2nccn2C)c1C(C)C`, the “% Inhibition” value is on record as 1% and the Z score is -0.12.
Taken in the same sequence, the figures for `Cc1nc(C(F)(F)F)ccc1-c1csc(N)n1` were -10% and 1.13.
Consider `Brc1ccc(-c2noc(-c3ccccc3-c3ccccc3)n2)cc1`, for which the “% Inhibition” value is -17% and the Z score was 2.03.
On to `Cc1ncccc1C(=O)Nc1ccncc1C(=O)C(C)C`, for which the “% Inhibition” value was 11% and the Z score is recorded as -1.35.
For the molecule `O=S(=O)(CC1CCCCC1)NCCN1CC2CCC(C1)O2`, the “% Inhibition” value is given as -8% and the Z score worked out at 1.03.
In the case of `CC(C)(C)c1c(Cl)c(O)c(-c2ccccc2)c(=O)n1-c1ccccc1`, the “% Inhibition” value is -5% and the Z score amounted to 0.7.
With `CN(Cc1cccc(C#N)c1)CN1C(=O)NC(C2CC2)(C2CC2)C1=O`, the “% Inhibition” value was -1% and the Z score was determined as 0.22.
Taken in the same sequence, the figures for `CC(NC(=O)N(C1CC1)C(C)C1CC1)c1csc(C2CC2)n1` (centres undefined) were -8% and 0.86.
In the case of `O=C(c1cscc1C(F)(F)F)N1CC(CCO)C1`, the “% Inhibition” value was -11% and the Z score amounted to 1.36.
For the molecule `N#CC1(C#N)[C@H](C(N)=O)[C@H]1c1ccccc1`, the “% Inhibition” value is -9% and the Z score was 1.45.
Taken in the same sequence, the figures for `Cc1cccc2oc(CNC(=O)CCn3cnnc3)nc12` were -11% and 1.24.
Take `CN(CCc1noc(C(F)(F)F)n1)C(=O)[C@H]1CCOc2ccccc2C1`: the “% Inhibition” value was -1% and the Z score amounted to 0.12.
On the same counts, the results for `CS(=O)(=O)N1CCN(C(=O)N2CCN(Cc3ccccc3)CC2)CC1` are -1% and 0.21.
Take `Cc1cc(C)c(OCC(N)=O)c(Cl)c1`: the “% Inhibition” value is -13% and the Z score is 1.23.
Take `Cc1c(NC(=O)NCC2(C3CCC3)CCC2)nnn1C`: the “% Inhibition” value is reported as -9% and the Z score amounted to 1.32.
On the same counts, the results for `Cc1cc(C)n(Cc2cccc(F)c2)c1C(=O)Nc1ccc(F)cc1` are 4% and -0.58.
On the same counts, the results for `Cc1noc(-c2ccc(C(C)(C)C)cc2)c1C(=O)NCc1cccnc1` are -11% and 1.8.
Consider `O=C1CC2(CCN(S(=O)(=O)N3CCOCC3)CC2)CN1Cc1ccccc1`, for which the “% Inhibition” value is listed as -8% and the Z score is recorded as 1.75.
Taken in the same sequence, the figures for `CC(=O)Oc1cc(C(=O)Nc2ccc3c(c2)OCO3)cc(C(=O)Nc2ccc3c(c2)OCO3)c1` were 4% and -0.63.
Taken in the same sequence, the figures for `O=C(Nn1cnnc1)C1CCN(S(=O)(=O)c2ccc(Cl)cc2)CC1` were -14% and 1.53.
Taken in the same sequence, the figures for `COc1ccccc1N1CCN(CC(=O)N2CC[C@H](Oc3ccccn3)C2)C1=O` were -6% and 1.15.
For the molecule `CC(C)(C)c1ccc(=O)n(CC2CN(c3cnsn3)C2)n1`, the “% Inhibition” value is reported as -16% and the Z score amounted to 2.38.
In the case of `O=C(NCc1cccnc1N1CCOCC1)N1CCCc2ccc(F)c(F)c21`, the “% Inhibition” value is reported as -3% and the Z score came out at 0.35.
Taken in the same sequence, the figures for `CC(=O)N(Cc1ccc(Cl)cc1)c1ccc2c(c1)nc(Cn1cccn1)n2C` were 30% and -3.93.
As for `COc1ccccc1C1(CNC(=O)c2cccs2)CCOCC1`, the “% Inhibition” value was -5% and the Z score came to 0.81.
On to `Cc1cccc(CC(=O)N(C)C[C@H](C)C(=O)O)c1`, for which the “% Inhibition” value is -11% and the Z score came to 1.41.
With `CN(C)Cc1ccccc1S(N)(=O)=O`, the “% Inhibition” value is listed as -8% and the Z score worked out at 1.24.
Turning to `CS(=O)(=O)C[C@H]1CCCCN1C(=O)c1cc2c([nH]1)CCCC2`, the “% Inhibition” value is listed as 5% and the Z score is -0.77.
In the case of `CC1CN(Cc2ccccc2)CC1NC(=O)C1CCOCC1` (centres undefined), the “% Inhibition” value is reported as -8% and the Z score came out at 0.86.
In the case of `CN(C)C(=O)c1cccc(N2CCC3(CCCC3)C2)n1`, the “% Inhibition” value is reported as -10% and the Z score turned out to be 1.17.
On the same counts, the results for `COc1ccc(C(=O)N2CCC3(CC2)C[C@@H](Cc2cccc(F)c2)CCO3)cc1F` are -10% and 1.31.
As to `O=C(O)[C@@]12CC[C@@H](c3ccccc3)C[C@@H]1CN(CCCn1cnnn1)C2`, the “% Inhibition” value was -21% and the Z score turned out to be 2.16.
